Whole data set: some 33,000 sequences, median “E-score (-0.5 to 0.5)” near -0.041, cut for the highest 2% near 0.37. This is one part of the list.
The sequences below were run against T1, Ecm22 (UniProt Q05958) (assay: PBM E-score (8-mer binding enrichment) (E-score (-0.5 to 0.5)); higher = stronger / more preferred TF binding; most listed sequences are background and not binding sites). Details: protein concentration: 200 nM; construct: GST-full length.
T1 sequence: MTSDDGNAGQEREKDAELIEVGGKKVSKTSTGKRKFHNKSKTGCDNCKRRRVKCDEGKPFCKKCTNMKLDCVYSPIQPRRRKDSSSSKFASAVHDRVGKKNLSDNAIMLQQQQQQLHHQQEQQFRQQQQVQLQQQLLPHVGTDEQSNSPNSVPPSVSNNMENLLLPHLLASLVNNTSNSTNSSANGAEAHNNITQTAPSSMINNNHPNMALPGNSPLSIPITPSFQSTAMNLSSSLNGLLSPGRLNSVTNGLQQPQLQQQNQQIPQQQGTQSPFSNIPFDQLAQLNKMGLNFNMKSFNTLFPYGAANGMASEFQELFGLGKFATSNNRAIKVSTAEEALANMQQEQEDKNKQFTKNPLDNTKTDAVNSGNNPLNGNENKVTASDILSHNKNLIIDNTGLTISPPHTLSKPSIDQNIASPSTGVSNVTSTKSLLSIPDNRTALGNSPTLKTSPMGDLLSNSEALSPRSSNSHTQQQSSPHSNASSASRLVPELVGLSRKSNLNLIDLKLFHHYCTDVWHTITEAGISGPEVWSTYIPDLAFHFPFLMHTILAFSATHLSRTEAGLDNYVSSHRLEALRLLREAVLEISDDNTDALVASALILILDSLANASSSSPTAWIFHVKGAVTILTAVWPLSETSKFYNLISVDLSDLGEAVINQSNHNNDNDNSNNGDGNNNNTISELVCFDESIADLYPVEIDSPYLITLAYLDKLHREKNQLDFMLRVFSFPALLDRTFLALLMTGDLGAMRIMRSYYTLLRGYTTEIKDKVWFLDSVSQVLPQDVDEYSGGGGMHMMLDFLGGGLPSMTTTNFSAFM
Procedure: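 Universal 'all 10-mer' protein binding microarrays (Agilent AMADID 015681) probed with GST-tagged S. cerevisiae TFs (full-length or DBD) made by in vitro transcription/translation (PURExpress), about 100-200 nM. Bound TF was detected with fluorescent anti-GST. Each ungapped 8-mer (which stands for itself and its reverse complement) is scored by the PBM enrichment score (E-score), a modified Wilcoxon-Mann-Whitney statistic from -0.5 to +0.5, computed with the Universal PBM Analysis Suite. Scale: above 0.35 generally sequence-specific binding.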

Sequence	PBM E-score
AATGCGTC	-0.144
CGGCTACC	-0.0704
AGAGCCTC	-0.119
CTGGCTCC	-0.202
CAGAGATA	-0.0689
GTTCCTTA	0.21
ACGGGAAG	0.105
CAGAGTAA	-0.263
GAGGGGTA	0.059
GCTCATGA	0.0254
AGAGCGAA	0.196
CATTAGAC	-0.354
GGGTTTAC	0.0709
TATAAATA	0.236
ATACCTAA	0.00421
ATACGCCG	0.277
AGCGAGTA	0.363
ACTGGCAC	-0.25
GATCTCAA	-0.0686
CTGAGACC	-0.314
GGATGGCC	-0.271
AGTGCCAA	-0.0554
AAACTAGC	-0.139
GGATAAAC	0.182
AAAGCACA	-0.0632

Sequence	PBM E-score
AACCTGCA	0.0107
AATACATA	-0.00765
AACGGGCG	0.225
GGTTACAA	0.121
AAGAAATC	0.0462
CCCCGTGA	-0.237
CGCAGGTC	-0.0744
GAGAATAA	-0.0195
AATATCTC	0.156
ATATTGCG	0.117
GTCCTCGA	-0.0879
ACAGAGCA	-0.00761
ACTCATTA	-0.0087
AGCAACAA	-0.0318
ACGGTGAT	0.107
CAACGCGC	0.102
CGCCTCAG	-0.265
ATTTGATC	0.0593
AATACCCC	-0.188
CCTATCTA	-0.206
ATGGAATA	-0.0571
AAAACCAG	-0.047
CCTAGAAC	-0.00215
TAATCCCA	-0.221
ATCCGTCG	0.252

Sequence	PBM E-score
GATTGGAC	-0.246
GAACTGAC	0.00371
CTGGTCTC	-0.162
GCAACCAC	-0.146
ACGTTGCC	-0.0326
ACCCATTG	-0.0186
ACAACGCA	0.0788
CCACTAAA	-0.0082
AGTTGGAG	-0.127
ACGGCCTG	0.0823
GGAACGCC	0.051
CCACCTGA	-0.178
AAAATCAA	-0.131
AACACCGC	-0.0635
TGTCTTAA	-0.176
ATCACTAC	-0.199
AGTTCGGA	-0.0218
ATTTGCAA	-0.0045
CAGGCGGA	-0.0338
GTCACTCA	-0.0675
TAAAGAGA	-0.207
GCAATCTA	-0.0926
ACTGCGTG	-0.033
GCAGCTCA	-0.199
TGATAACA	0.021

Sequence	PBM E-score
CAGCGATC	0.162
AGGTCGCA	0.188
GTTTCAAA	0.0508
AGGAGGGA	-0.171
GACACCAC	-0.176
AGATAAAT	-0.035
CGTAGTGA	-0.0367
ACGGCAGC	0.0307
AATGTAGC	-0.0437
ACATACTC	0.0477
CACGCACG	-0.213
ACAGAGAT	-0.093
ATTGGGTG	-0.128
ATTTTGCC	-0.176
CATCGTGG	-0.0323
TGCAGTAA	-0.162
ACCGTGGG	-0.161
ACTAGGCA	-0.198
GTCCGGAA	-0.0405
AGGGAGAT	-0.275
AAGTGAAC	0.0448
CAAATGTG	0.0621
GTGCTCCA	-0.163
ACAAAAGC	-0.0849
ATGATACC	0.146

Sequence	PBM E-score
AACGCTGC	0.00979
GCTCGTAA	0.451
ACTCGGCA	0.181
GCCACTAA	-0.252
GCACACAA	-0.0514
AAGTGTCA	-0.191
AAGTAAAA	-0.109
AATCCAAG	-0.0432
TACCTATA	-0.0275
TCCGGACA	-0.131
GTTTAATA	0.119
AAGCCGAA	-0.0177
ACTGACTA	-0.00261
ACCTCTAT	-0.113
CGCCGCCA	-0.163
CCGTACCC	0.433
AAAACCTA	0.0959
GGGCCTAC	-0.146
CACTGGCG	-0.189
ATGTCCCG	-0.0417
GCACCACC	-0.27
CCTACAAA	-0.165
ACTGTGCT	-0.234
CGGTGAGA	0.00317
AGACCCGG	-0.222

Sequence	PBM E-score
ACCCGAGA	0.248
CAATACAC	0.0386
GACGACAA	0.155
AAACGCTA	0.0339
GTGTTACA	-0.0116
AGGCGATA	-0.0429
GCCGTAGC	0.163
CGTCAGAG	-0.146
CTATTAAG	-0.193
AGCCGCCA	-0.264
TCACGGAA	0.00788
AAGCATCC	-0.241
CGGGCTCA	0.124
AACCACAC	0.103
TATCAATA	0.0585
AGTAAAAT	-0.03
ATTGGAAA	-0.124
GCCTAACA	-0.218
GTACCTTA	0.249
CAATGCAA	-0.0622
CGGAGACC	-0.0617
CTGACAGA	-0.0832
AAAACGTC	0.0734
CACATCGC	-0.0308
AGGCCCGC	0.00067

Sequence	PBM E-score
AAAGCCAC	-0.102
TATGTACA	-0.111
GTCAAAAC	0.0228
GATAGTAA	0.0119
CCCACTAG	-0.32
GTGAGCTA	-0.15
TGCATCAA	-0.0563
GGCGCATA	-0.0416
ATATAAAG	-0.0703
ACTGCCTC	-0.0892
CAAGACCG	0.106
CTCTGAAG	-0.0683
CATGAGAC	0.0346
ATCATCCA	-0.00974
AACCGTCT	-0.038
TGGCCTAA	-0.212
CGACATAG	0.0415
TGGCATAA	0.0462
CGTACGCA	0.36
TCCTGCAA	-0.0785
GGGGCGAC	-0.205
TGACTGCA	-0.0938

— the supplement of paper PMC3334620
